These results are taken from the supplement of paper PMC9446081.

The campaign covered roughly 39,000 compounds. About 220 (0.56%) showed activity. The list shows a part of the results.
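Note: static incubation at 37 °C against the wild-type strain, values averaged over two biological replicates.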

For the test, the system named is Escherichia coli K-12 BW25113. The test is described as follows: relative growth (OD600 normalised to plate interquartile mean) (fraction); higher = less growth inhibition, active = 0.2 or less. The note with it: 50 µM; LB; incubation time: overnight (16-24 h).
With `N#CCNC(=O)CN1C(=O)c2ccccc2C1=O`, the relative growth was inactive: 1.02.
On to `CC(C)NC(=O)N(C)C[C@H]1Oc2ccc(NC(=O)Nc3ccc4c(c3)OCO4)cc2C(=O)N([C@@H](C)CO)C[C@@H]1C`, for which the relative growth was inactive: 0.989.
To `COc1ccc(CN(C)C[C@H]2Oc3ccc(NS(=O)(=O)c4cn(C)cn4)cc3CC(=O)N([C@H](C)CO)C[C@@H]2C)cc1` belongs inactive: 0.917; to `Cc1noc(C)c1NC(=O)Nc1ccc2c(c1)C(=O)N([C@@H](C)CO)C[C@@H](C)[C@H](CN(C)S(=O)(=O)c1cn(C)cn1)O2`, inactive: 0.976.
To `CNC(=O)C[C@@H]1CC[C@H]2[C@H](COc3ccc(NC(=O)c4ccc(C(F)(F)F)cc4)cc3C(=O)N2C)O1` belongs inactive: 0.987.
As for `C[C@@H]1CN([C@H](C)CO)C(=O)c2cccc(NC(=O)Nc3ccc(F)cc3)c2O[C@@H]1CN(C)S(C)(=O)=O`, the figure is inactive: 0.95; as for `O=c1[nH][nH]c(=S)n1C1CC1`, inactive: 0.98.
As to `COCC(=O)N(C)C[C@H]1Oc2cc(-c3ccc(OC)cc3)ccc2S(=O)(=O)N([C@@H](C)CO)C[C@@H]1C`, the relative growth was inactive: 0.991.
As to `COc1cc(O)c2c(=O)c(O)c(-c3ccccc3)oc2c1`, the relative growth is inactive: 1.02.
To `COc1ccc(NC(=O)Nc2ccc3c(c2)C(=O)N([C@H](C)CO)C[C@@H](C)[C@H](CN(C)C(=O)Nc2cccc4ccccc24)O3)cc1` belongs inactive: 0.88; to `COc1ccc(NC(=O)N(C)C[C@@H]2OCCCC[C@H](C)Oc3ccc(NC(=O)C4CCCCC4)cc3C(=O)N([C@@H](C)CO)C[C@@H]2C)cc1`, inactive: 0.987; to `COc1ccc(NC(=O)Nc2ccc3c(c2)C(=O)N([C@H](C)CO)C[C@@H](C)[C@H](CN(C)S(=O)(=O)c2ccc(OC)cc2)OCCCC[C@@H](C)O3)cc1`, inactive: 1.06.
As for `COc1ccccc1S(=O)(=O)N(C)C[C@H]1OCc2cn(nn2)CCCC(=O)N([C@H](C)CO)C[C@H]1C`, the figure is inactive: 0.996.
As for `CC(C)N1C[C@H](C)[C@@H](CN(C)Cc2ccc(Cl)c(Cl)c2)Oc2c(cccc2-c2nnc(-c3ccncc3)o2)C1=O`, the figure is inactive: 0.889; as for `C[C@H]1CN([C@@H](C)CO)S(=O)(=O)c2ccc(-c3cncnc3)cc2O[C@@H]1CN(C)C(=O)Cc1cccnc1`, inactive: 1.02.
As for `COc1ccc(NC(=O)N(C)C[C@H]2OCCCC[C@H](C)Oc3ccc(NC(=O)Nc4ccc5c(c4)OCO5)cc3C(=O)N([C@@H](C)CO)C[C@H]2C)cc1`, the relative growth is inactive: 1.
As for `O=C(C[C@@H]1CC[C@@H]2[C@H](COC[C@@H](O)CN2Cc2ccccc2F)O1)N[C@H]1CCN(Cc2ccccc2)C1`, the figure is inactive: 0.985; as for `CNC[C@H]1Oc2cc(C#CCN(C)C)ccc2S(=O)(=O)N([C@@H](C)CO)C[C@H]1C`, inactive: 1.02; as for `Cc1ccc(S(=O)(=O)Nc2ccc3c(c2)C(=O)N([C@H](C)CO)C[C@@H](C)[C@@H](CN(C)Cc2ccc(C(F)(F)F)cc2)O3)cc1`, inactive: 1.04.
To `O=C(C[C@H]1CC[C@H]2[C@@H](COC[C@@H](O)CN2C(=O)c2ccc(F)cc2)O1)NCCCN1CCOCC1` belongs inactive: 0.988; to `NC(=O)C[C@H]1Nc2ccccc2NC1=O`, inactive: 0.985; to `C[C@@H]1CN([C@H](C)CO)C(=O)c2cc(NC(=O)Cc3ccccc3)ccc2O[C@@H](C)CCCCO[C@@H]1CN(C)Cc1ccncc1`, inactive: 0.888.
`C[C@@H]1CN([C@@H](C)CO)C(=O)c2cc(NC(=O)Nc3ccccc3)ccc2O[C@@H](C)CCCCO[C@@H]1CN(C)CC1CCCCC1`: the relative growth was inactive: 0.942.
As for `C[C@@H]1CN([C@@H](C)CO)C(=O)c2cc(NC(=O)CCCN(C)C)ccc2O[C@H]1CN(C)C(=O)Nc1ccc2c(c1)OCO2`, the figure is inactive: 0.975.
Regarding `C[C@@H]1CCCCO[C@@H](CN(C)S(=O)(=O)c2cn(C)cn2)[C@H](C)CN([C@@H](C)CO)C(=O)c2cc(NS(=O)(=O)c3ccc(F)cc3)ccc2O1`, the relative growth is inactive: 1.01.
As for `Oc1ccc(Oc2ccccc2)cc1`, the figure is inactive: 0.93; as for `O=C1O[C@@H](c2ccccc2)[C@@H](c2ccccc2)N2[C@@H](c3ccc(O)cc3)[C@]3(C(=O)Nc4ccccc43)[C@@H](C(=O)NC[C@H](O)c3ccccc3)[C@H]12`, inactive: 1.01.
To `O=C(CCCCCNC(=O)OCc1ccc(CO[C@H]2C[C@@H](c3csc4ccccc34)C=C(C(=O)N3CCN(Cc4ccc5c(c4)OCO5)CC3)O2)cc1)NO` belongs inactive: 0.995; to `C[C@H]1CCCCO[C@H](CN(C)S(=O)(=O)c2cn(C)cn2)[C@@H](C)CN([C@@H](C)CO)C(=O)c2cc(NC(=O)Nc3ccc(C(F)(F)F)cc3)ccc2O1`, inactive: 0.96.
Turning to `CC(C)NC(=O)N(C)C[C@@H]1Oc2ccc(NC(=O)Cn3cnnn3)cc2CC(=O)N([C@@H](C)CO)C[C@H]1C`, the relative growth was inactive: 1.
To `O=C(O)Cc1ccc(O)c(O)c1` belongs inactive: 1; to `C[C@@H]1CN([C@@H](C)CO)S(=O)(=O)c2ccc(-c3cncnc3)cc2O[C@@H]1CN(C)C(=O)Cc1ccccc1`, inactive: 0.985.
`Cc1cc(C(=O)Nc2cccc3c2O[C@@H](CN(C)C(=O)NC(C)C)[C@H](C)CN([C@@H](C)CO)C3=O)n(C)n1`: the relative growth is inactive: 0.995.
As for `O=C(CCCCC(=O)N/N=C/c1cc[n+]([O-])cc1)NO`, the figure is inactive: 0.993; as for `C[C@H]1CN([C@@H](C)CO)C(=O)Cc2cc(NC(=O)Nc3ccc(Cl)c(Cl)c3)ccc2O[C@H]1CN(C)S(=O)(=O)c1ccc(Cl)cc1`, inactive: 1.01; as for `O=C(N[C@@H]1CC[C@@H](CCNS(=O)(=O)c2ccc(F)cc2)O[C@@H]1CO)C1CC1`, inactive: 0.969.
To `N#CCSc1n[nH]c(=O)[nH]c1=O` belongs inactive: 1.02; to `COC(=O)C(Cc1ccccc1)NC(=O)C(N)CC(=O)O` (configuration not stated), inactive: 0.995; to `C[C@@H]1CCCCO[C@H](CN(C)Cc2ccc(Cl)c(Cl)c2)[C@H](C)CN([C@@H](C)CO)C(=O)c2cc(NS(=O)(=O)c3cn(C)cn3)ccc2O1`, inactive: 0.986.
To `COCCNC(=O)C[C@H]1C[C@@H]2c3cc(NC(=O)Nc4ccc(C(F)(F)F)cc4)ccc3O[C@@H]2[C@H](CO)O1` belongs inactive: 1.
Turning to `O=C1CCC(=O)N1Cc1cccc(CN2C(=O)[C@]3(CC(=O)N(Cc4ccccc4)C3=O)c3ccccc32)c1`, the relative growth is inactive: 1.03.
As for `C[C@@H]1CCCCO[C@H](CN(C)C(=O)NC2CCCCC2)[C@@H](C)CN([C@@H](C)CO)C(=O)c2cc(NC(=O)c3ccccc3)ccc2O1`, the figure is inactive: 1.03.
To `COc1ccc([Si](C)(C)[C@H]2[C@H](CCO)O[C@@]3(C(=O)N(Cc4ccc(N5CCCCC5=O)cc4)c4ccccc43)[C@@H]2C)cc1` belongs inactive: 1.02; to `Cc1noc(C)c1S(=O)(=O)N(C)C[C@H]1Oc2c(NS(C)(=O)=O)cccc2C(=O)N([C@@H](C)CO)C[C@H]1C`, inactive: 0.978.
As for `CCS(=O)(=O)Nc1ccc2c(c1)C(=O)N(C)C[C@H](OC)[C@H](C)CN(CCC(F)(F)F)[C@H](C)CO2`, the figure is inactive: 0.959; as for `COc1cc(N2CC[C@H]3O[C@@H](C(=O)NCCN(C)C)C[C@H]32)ncn1`, inactive: 1.01; as for `C[C@H]1CN([C@@H](C)CO)C(=O)Cc2cc(NS(=O)(=O)c3ccccc3)ccc2O[C@H]1CN(C)Cc1ccc(Oc2ccccc2)cc1`, inactive: 1.02.
Turning to `O=C(C[C@H]1C=C[C@@H](NC(=O)c2ccc(F)cc2)[C@@H](CO)O1)NCc1ccncn1`, the relative growth was inactive: 1.
As for `CC(C)(C)[S@@](=O)N1Cc2cc(C(=O)N[C@H]3CCN(Cc4ccccc4)C3)nc(-c3cccc(-c4ccncc4)c3)c2[C@H]1CCO`, the figure is inactive: 0.996; as for `CC(C)CC#Cc1cnc2c(c1)C(=O)N([C@@H](C)CO)C[C@@H](C)[C@@H](CN(C)S(=O)(=O)c1cn(C)cn1)O2`, inactive: 1.01; as for `COC(=O)c1c(CC[C@@H](CO)NC(=O)N[C@H](Cc2ccccc2)Cn2cc(-c3ccccn3)nn2)oc(C(C)=O)c1C(=O)OC`, inactive: 1.
As for `CCCCN(CCCC)CC[C@@H](O)c1cc2c(Cl)cc(Cl)cc2c2cc(C(F)(F)F)ccc12`, the figure is inactive: 1.01; as for `C[C@H](CO)N1C[C@H](C)[C@@H](CN(C)Cc2ccc(Cl)c(Cl)c2)Oc2ccc(NS(=O)(=O)c3ccc(Cl)cc3)cc2CC1=O`, inactive: 1.03; as for `C[C@@H]1CN([C@H](C)CO)C(=O)c2cc(NC(=O)C3CCCCC3)ccc2O[C@H]1CN(C)Cc1ccc(Cl)c(Cl)c1`, inactive: 1.02.
To `O=C(C[C@@H]1CC[C@H]2[C@@H](COC[C@H](O)CN2C(=O)c2cccnc2)O1)NCc1ccc(-c2ccccc2)cc1` belongs inactive: 0.976; to `Cc1ccccc1S(=O)(=O)N1C[C@H](O)COC[C@H]2O[C@@H](CC(=O)N3CCC(Cc4ccccc4)CC3)CC[C@@H]21`, inactive: 0.958; to `COCC#Cc1ccc2c(c1)O[C@@H](CN(C)S(=O)(=O)c1ccc(F)cc1)[C@@H](C)CN([C@H](C)CO)S2(=O)=O`, inactive: 1.01.
On to `CC(=O)OC1CCC2(C)C(CCC3(C)C2CCC24OC(=O)C5(CCC(C)C(C)C52)CCC34C)C1(C)C` (configuration not stated), for which the relative growth was inactive: 1.02.
To `C=C(C)C1CC=C(CO)CC1` (configuration not stated) belongs inactive: 1.05.
As for `C[C@H]1CN([C@@H](C)CO)C(=O)Cc2cc(NS(=O)(=O)c3cn(C)cn3)ccc2O[C@@H]1CN(C)Cc1ccc(C(=O)O)cc1`, the figure is inactive: 0.964; as for `C[C@@H]1CN([C@H](C)CO)S(=O)(=O)c2ccc(Br)cc2O[C@H]1CN(C)C(=O)Cc1ccccn1`, inactive: 0.996.
To `C[C@@H]1CN([C@@H](C)CO)C(=O)c2cc(NS(=O)(=O)c3ccc(Cl)cc3)ccc2O[C@@H](C)CCCCO[C@H]1CN(C)C(=O)c1ccccc1` belongs inactive: 1.01.
